# Assay results taken from article PMC9911399, “Two distinct binding modes provide the RNA-binding protein RbFox with extraordinary sequence specificity”.
# Positions count from the first letter of the chain named. This is one part of the list.
# T1: RBFOX1 RRM (Homo sapiens, UniProt Q9NWB1 109-208)
# T1 sequence: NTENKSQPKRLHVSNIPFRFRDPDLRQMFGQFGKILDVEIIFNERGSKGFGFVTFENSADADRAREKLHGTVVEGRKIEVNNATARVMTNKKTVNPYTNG
# B1: GUGGCGU (DNA:RNA)
# RNA: GGGAGACCGGAAUUCAGAUUGUCCGUGGCGUUUAAAUCCCGUCGUAGCCACCA
# DNA 1: CAATCTGAATTCCGGTCTCCC
# DNA 2: TGGTGGCTACGACGGGATT
# B2: GCGCACA (DNA:RNA)
# RNA: B1 RNA with U26C, G28C, C29A, G30C, U31A
# DNA 1: CAATCTGAATTCCGGTCTCCC
# DNA 2: TGGTGGCTACGACGGGATT
# B3: GAGGGGA (DNA:RNA)
# RNA: B1 RNA with U26A, C29G, U31A
# DNA 1: CAATCTGAATTCCGGTCTCCC
# DNA 2: TGGTGGCTACGACGGGATT
# B4: UUUGUUA (DNA:RNA)
# RNA: B1 RNA with G25U, G27U, C29U, G30U, U31A
# DNA 1: CAATCTGAATTCCGGTCTCCC
# DNA 2: TGGTGGCTACGACGGGATT
# B5: UAAGCAA (DNA:RNA)
# RNA: B1 RNA with G25U, U26A, G27A, G30A, U31A
# DNA 1: CAATCTGAATTCCGGTCTCCC
# DNA 2: TGGTGGCTACGACGGGATT
# B6: GAGACCU (DNA:RNA)
# RNA: B1 RNA with U26A, G28A, G30C
# DNA 1: CAATCTGAATTCCGGTCTCCC
# DNA 2: TGGTGGCTACGACGGGATT
# B7: UGAUAAU (DNA:RNA)
# RNA: B1 RNA with G25U, U26G, G27A, G28U, C29A, G30A
# DNA 1: CAATCTGAATTCCGGTCTCCC
# DNA 2: TGGTGGCTACGACGGGATT
# B8: CGAUCAU (DNA:RNA)
# RNA: B1 RNA with G25C, U26G, G27A, G28U, G30A
# DNA 1: CAATCTGAATTCCGGTCTCCC
# DNA 2: TGGTGGCTACGACGGGATT
# B9: AACUCGC (DNA:RNA)
# RNA: B1 RNA with G25A, U26A, G27C, G28U, U31C
# DNA 1: CAATCTGAATTCCGGTCTCCC
# DNA 2: TGGTGGCTACGACGGGATT
# B10: CCUAGGU (DNA:RNA)
# RNA: B1 RNA with G25C, U26C, G27U, G28A, C29G
# DNA 1: CAATCTGAATTCCGGTCTCCC
# DNA 2: TGGTGGCTACGACGGGATT
# B11: GCCGAUA (DNA:RNA)
# RNA: B1 RNA with U26C, G27C, C29A, G30U, U31A
# DNA 1: CAATCTGAATTCCGGTCTCCC
# DNA 2: TGGTGGCTACGACGGGATT
# B12: UCUGCCG (DNA:RNA)
# RNA: B1 RNA with G25U, U26C, G27U, G30C, U31G
# DNA 1: CAATCTGAATTCCGGTCTCCC
# DNA 2: TGGTGGCTACGACGGGATT
# B13: GUGUAUG (DNA:RNA)
# RNA: B1 RNA with G28U, C29A, G30U, U31G
# DNA 1: CAATCTGAATTCCGGTCTCCC
# DNA 2: TGGTGGCTACGACGGGATT
# B14: UUGAAUA (DNA:RNA)
# RNA: B1 RNA with G25U, G28A, C29A, G30U, U31A
# DNA 1: CAATCTGAATTCCGGTCTCCC
# DNA 2: TGGTGGCTACGACGGGATT
# B15: AGCUAUA (DNA:RNA)
# RNA: GGGAGACCGGAAUUCAGAUUGUCCAGCUAUAUUAAAUCCCGUCGUAGCCACCA
# DNA 1: CAATCTGAATTCCGGTCTCCC
# DNA 2: TGGTGGCTACGACGGGATT
# B16: CAACUUU (DNA:RNA)
# RNA: B15 RNA with A25C, G26A, C27A, U28C, A29U, A31U
# DNA 1: CAATCTGAATTCCGGTCTCCC
# DNA 2: TGGTGGCTACGACGGGATT
# B17: AGGCGGA (DNA:RNA)
# RNA: B15 RNA with C27G, U28C, A29G, U30G
# DNA 1: CAATCTGAATTCCGGTCTCCC
# DNA 2: TGGTGGCTACGACGGGATT
# B18: CGGAUCC (DNA:RNA)
# RNA: B15 RNA with A25C, C27G, U28A, A29U, U30C, A31C
# DNA 1: CAATCTGAATTCCGGTCTCCC
# DNA 2: TGGTGGCTACGACGGGATT
# B19: AAGGACG (DNA:RNA)
# RNA: B15 RNA with G26A, C27G, U28G, U30C, A31G
# DNA 1: CAATCTGAATTCCGGTCTCCC
# DNA 2: TGGTGGCTACGACGGGATT
# B20: GUAGUUU (DNA:RNA)
# RNA: B1 RNA with G27A, C29U, G30U
# DNA 1: CAATCTGAATTCCGGTCTCCC
# DNA 2: TGGTGGCTACGACGGGATT
# B21: AGCGCAU (DNA:RNA)
# RNA: B15 RNA with U28G, A29C, U30A, A31U
# DNA 1: CAATCTGAATTCCGGTCTCCC
# DNA 2: TGGTGGCTACGACGGGATT
# B22: GGGAAGU (DNA:RNA)
# RNA: B1 RNA with U26G, G28A, C29A
# DNA 1: CAATCTGAATTCCGGTCTCCC
# DNA 2: TGGTGGCTACGACGGGATT
# B23: UUAUCCG (DNA:RNA)
# RNA: B1 RNA with G25U, G27A, G28U, G30C, U31G
# DNA 1: CAATCTGAATTCCGGTCTCCC
# DNA 2: TGGTGGCTACGACGGGATT
# B24: GCACUGA (DNA:RNA)
# RNA: B1 RNA with U26C, G27A, G28C, C29U, U31A
# DNA 1: CAATCTGAATTCCGGTCTCCC
# DNA 2: TGGTGGCTACGACGGGATT
# B25: CUGUGGG (DNA:RNA)
# RNA: B1 RNA with G25C, G28U, C29G, U31G
# DNA 1: CAATCTGAATTCCGGTCTCCC
# DNA 2: TGGTGGCTACGACGGGATT
# B26: CGACGUU (DNA:RNA)
# RNA: B15 RNA with A25C, C27A, U28C, A29G, A31U
# DNA 1: CAATCTGAATTCCGGTCTCCC
# DNA 2: TGGTGGCTACGACGGGATT
# B27: UCGAUUU (DNA:RNA)
# RNA: B1 RNA with G25U, U26C, G28A, C29U, G30U
# DNA 1: CAATCTGAATTCCGGTCTCCC
# DNA 2: TGGTGGCTACGACGGGATT
# B28: AGUGAUU (DNA:RNA)
# RNA: B15 RNA with C27U, U28G, A31U
# DNA 1: CAATCTGAATTCCGGTCTCCC
# DNA 2: TGGTGGCTACGACGGGATT
# B29: AGUUGGA (DNA:RNA)
# RNA: B15 RNA with C27U, A29G, U30G
# DNA 1: CAATCTGAATTCCGGTCTCCC
# DNA 2: TGGTGGCTACGACGGGATT
# B30: CUUCUAA (DNA:RNA)
# RNA: B15 RNA with A25C, G26U, C27U, U28C, A29U, U30A
# DNA 1: CAATCTGAATTCCGGTCTCCC
# DNA 2: TGGTGGCTACGACGGGATT
# B31: AAUGCAA (DNA:RNA)
# RNA: B15 RNA with G26A, C27U, U28G, A29C, U30A
# DNA 1: CAATCTGAATTCCGGTCTCCC
# DNA 2: TGGTGGCTACGACGGGATT
# Target: T1, RBFOX1 RRM
# Test: EMSA; HiTS-Eq, 1 nM pool, 10 min; buffer printed only for the single-RNA assays: 10 mM Tris pH 7.5, 150 mM NaCl, 3.4 mM EDTA, 0.001% NP-40, 30 C
# Settings: tags: His6 N-terminal (pET28a); label: 5' 32P
# In short: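 These values rest on relative association constants, computed from read-count changes of each RNA species versus the control reaction and normalised to the cognate motif. Reads came from free RNA recovered by 8% native PAGE after purified RbFox RRM (wild type or mutant) at increasing concentrations was equilibrated for 10 min in 50 µL with 1 nM of a 5′-radiolabelled pool with 7 randomized nucleotides and DNA-annealed flanks.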
row,Binder,binding signal
1,B1,0.0228 KA relative to UGCAUGU
2,B2,0.0105 KA relative to UGCAUGU
3,B3,0.0145 KA relative to UGCAUGU
4,B4,0.0162 KA relative to UGCAUGU
5,B5,0.00952 KA relative to UGCAUGU
6,B6,0.00471 KA relative to UGCAUGU
7,B7,0.0068 KA relative to UGCAUGU
8,B8,0.0016 KA relative to UGCAUGU
9,B9,0.00648 KA relative to UGCAUGU
10,B10,0.0101 KA relative to UGCAUGU
11,B11,0.00929 KA relative to UGCAUGU
12,B12,0.0168 KA relative to UGCAUGU
13,B13,0.023 KA relative to UGCAUGU
14,B14,0.00895 KA relative to UGCAUGU
15,B15,0.00341 KA relative to UGCAUGU
16,B16,0.000994 KA relative to UGCAUGU

row,Binder,binding signal
1,B17,0.0127 KA relative to UGCAUGU
2,B18,0.0242 KA relative to UGCAUGU
3,B19,0.00506 KA relative to UGCAUGU
4,B20,0.0112 KA relative to UGCAUGU
5,B21,0.0144 KA relative to UGCAUGU
6,B22,0.0302 KA relative to UGCAUGU
7,B23,0.00602 KA relative to UGCAUGU
8,B24,0.013 KA relative to UGCAUGU
9,B25,0.0059 KA relative to UGCAUGU
10,B26,0.00921 KA relative to UGCAUGU
11,B27,0.0106 KA relative to UGCAUGU
12,B28,0.00948 KA relative to UGCAUGU
13,B29,0.00398 KA relative to UGCAUGU
14,B30,0.00289 KA relative to UGCAUGU
15,B31,0.0039 KA relative to UGCAUGU
